# Some of the results follow.
# B1: Siglec-7-SA-PE-180 (Homo sapiens), Q9Y286 (protein)
# chain: MLLLLLLPLLWGRERVEGQKSNRKDYSLTMQSSVTVQEGMCVHVRCSFSYPVDSQTDSDPVHGYWFRAGNDISWKAPVATNNPAWAVQEETRDRFHLLGDPQTKNCTLSIRDARMSDAGRYFFRMEKGNIKWNYKYDQLSVNVTALTHRPNILIPGTLESGCFQNLTCSVPWACEQGTPPMISWMGTSVSPLHPSTTRSSVLTLIPQPQHHGTSLTCQVTLPGAGVTTNRTIQLNVSYPPQNLTVTVFQGEGTASTALGNSSSLSVLEGQSLRLVCAVDSNPPARLSWTWRSLTLYPSQPSNPLVLELQVHLGDEGEFTCRAQNSLGSQHVSLNLSLQQEYTGKMRPVSGVLLGAVGGAGATALVFLSFCVIFIVVRSCRKKSARPAADVGDIGMKDANTIRGSASQGNLTESWADDNPRHHGLAAHSSGEEREIQYAPLSFHKGEPQDLSGQEATNNEYSEIKIPK
# How the values were obtained:
# Test in all cases: glycan array binding signal (z-score within array); higher = stronger binding
# Details in all cases: glycan notation: IUPAC condensed, linker removed
# [1] = target: Man(a1-3)[Man(a1-6)]Man(a1-6)[Man(a1-3)]Man(b1-4)GlcNAc(b1-4)GlcNAc
# Summary of the method: (§1)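 From the Consortium for Functional Glycomics database, 3228 arrays were curated, keeping only those whose protein sequence was available. Binding is given as a within-array Z-score averaged across arrays sharing a protein sequence and across linkers. Negative Z-scores can be read as non-binding.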
# [2] = target: Man(a1-3)[Man(a1-6)]Man(b1-4)GlcNAc(b1-4)GlcNAc
# Summary of the method: as §1
# [3] = target: Man(a1-3)[Man(a1-6)]Man(b1-4)GlcNAc(b1-4)[Fuc(a1-6)]GlcNAc
# Summary of the method: as §1
# [4] = target: Man(a1-6)Man
# Summary of the method: as §1
# [5] = target: Man(b1-4)GlcNAc
# Summary of the method: as §1
# [6] = target: MurNAc(b1-4)GlcNAc
# Summary of the method: as §1
# [7] = target: Neu5Ac(a2-3)Gal
# Summary of the method: as §1
# [8] = target: Neu5Ac(a2-3)Gal(b1-3)GalNAc
# Summary of the method: as §1
# [9] = target: Neu5Ac(a2-3)Gal(b1-3)GalNAc(b1-3)Gal(a1-4)Gal(b1-4)Glc
# Summary of the method: as §1
# [10] = target: Neu5Ac(a2-3)Gal(b1-3)GalNAc(b1-4)[Neu5Ac(a2-3)]Gal(b1-4)Glc
# Summary of the method: as §1
# [11] = target: Neu5Ac(a2-3)Gal(b1-3)GalNAc(b1-4)[Neu5Ac(a2-8)Neu5Ac(a2-3)]Gal(b1-4)Glc
# Summary of the method: as §1
# [12] = target: Neu5Ac(a2-3)Gal(b1-3)GalNAc6S
# Summary of the method: as §1
# [13] = target: Neu5Ac(a2-3)Gal(b1-3)GlcNAc
# Summary of the method: as §1
# [14] = target: Neu5Ac(a2-3)Gal(b1-3)GlcNAc(b1-2)Man
# Summary of the method: as §1
# [15] = target: Neu5Ac(a2-3)Gal(b1-3)GlcNAc(b1-2)Man(a1-3)[GlcNAc(b1-4)][Neu5Ac(a2-3)Gal(b1-3)GlcNAc(b1-2)Man(a1-6)]Man(b1-4)GlcNAc(b1-4)GlcNAc
# Summary of the method: as §1
# [16] = target: Neu5Ac(a2-3)Gal(b1-3)GlcNAc(b1-2)Man(a1-3)[Neu5Ac(a2-3)Gal(b1-3)GlcNAc(b1-2)Man(a1-6)]Man(b1-4)GlcNAc(b1-4)GlcNAc
# Summary of the method: as §1
# [17] = target: Neu5Ac(a2-3)Gal(b1-3)GlcNAc(b1-3)Gal(b1-3)GlcNAc
# Summary of the method: as §1
# [18] = target: Neu5Ac(a2-3)Gal(b1-3)GlcNAc(b1-3)Gal(b1-4)GlcNAc
# Summary of the method: as §1
# [19] = target: Neu5Ac(a2-3)Gal(b1-3)GlcNAc(b1-3)GalNAc
# Summary of the method: as §1
# [20] = target: Neu5Ac(a2-3)Gal(b1-3)GlcNAc(b1-4)Gal(b1-4)Glc
# Summary of the method: as §1
# [21] = target: Neu5Ac(a2-3)Gal(b1-3)GlcNAc(b1-6)GalNAc
# Summary of the method: as §1
# [22] = target: Neu5Ac(a2-3)Gal(b1-3)GlcNAc6S
# Summary of the method: as §1
# [23] = target: Neu5Ac(a2-3)Gal(b1-3)[Fuc(a1-4)]GlcNAc
# Summary of the method: as §1
# [24] = target: Neu5Ac(a2-3)Gal(b1-3)[Fuc(a1-4)]GlcNAc(b1-3)Gal(b1-3)[Fuc(a1-4)]GlcNAc
# Summary of the method: as §1
# [25] = target: Neu5Ac(a2-3)Gal(b1-3)[Fuc(a1-4)]GlcNAc(b1-3)Gal(b1-4)[Fuc(a1-3)]GlcNAc
# Summary of the method: as §1
# [26] = target: Neu5Ac(a2-3)Gal(b1-3)[GlcNAc(b1-6)]GalNAc
# Summary of the method: as §1
# [27] = target: Neu5Ac(a2-3)Gal(b1-3)[Neu5Ac(a2-3)Gal(b1-4)]GlcNAc
# Summary of the method: as §1
# [28] = target: Neu5Ac(a2-3)Gal(b1-3)[Neu5Ac(a2-6)]GalNAc
# Summary of the method: as §1
# [29] = target: Neu5Ac(a2-3)Gal(b1-3)[Neu5Ac(a2-6)]GlcNAc(b1-3)[Fuc(a1-3)[Gal(b1-4)]GlcNAc(b1-6)]Gal(b1-4)Glc
# Summary of the method: as §1
# [30] = target: Neu5Ac(a2-3)Gal(b1-3)]Neu5Ac(a2-3)Gal(b1-4)]GlcNAc
# Summary of the method: as §1
# [31] = target: Neu5Ac(a2-3)Gal(b1-4)Glc
# Summary of the method: as §1
# [32] = target: Neu5Ac(a2-3)Gal(b1-4)GlcNAc
# Summary of the method: as §1
# [33] = target: Neu5Ac(a2-3)Gal(b1-4)GlcNAc(b1-2)Man
# Summary of the method: as §1
# [34] = target: Neu5Ac(a2-3)Gal(b1-4)GlcNAc(b1-2)Man(a1-3)[GlcNAc(b1-2)Man(b1-4)GlcNAc(b1-2)Man(a1-6)]Man(b1-4)GlcNAc(b1-4)GlcNAc
# Summary of the method: as §1
# [35] = target: Neu5Ac(a2-3)Gal(b1-4)GlcNAc(b1-2)Man(a1-3)[GlcNAc(b1-4)][Neu5Ac(a2-3)Gal(b1-4)GlcNAc(b1-2)Man(a1-6)]Man(b1-4)GlcNAc(b1-4)GlcNAc
# Summary of the method: as §1
# [36] = target: Neu5Ac(a2-3)Gal(b1-4)GlcNAc(b1-2)Man(a1-3)[Neu5Ac(a2-3)Gal(b1-4)GlcNAc(b1-2)Man(a1-6)]Man(b1-4)GlcNAc(b1-4)GlcNAc
# Summary of the method: as §1
binder,measurement,setting,value
B1,glycan array binding signal (z-score),[1],-0.43
same,glycan array binding signal (z-score),[2],-0.249
same,glycan array binding signal (z-score),[3],-0.249
same,glycan array binding signal (z-score),[4],-0.087
same,glycan array binding signal (z-score),[5],-0.016
same,glycan array binding signal (z-score),[6],-0.382
same,glycan array binding signal (z-score),[7],2.25
same,glycan array binding signal (z-score),[8],0.25
same,glycan array binding signal (z-score),[9],-0.233
same,glycan array binding signal (z-score),[10],-0.071
same,glycan array binding signal (z-score),[11],-0.182
same,glycan array binding signal (z-score),[12],1.38
same,glycan array binding signal (z-score),[13],0.568
same,glycan array binding signal (z-score),[14],-0.114
same,glycan array binding signal (z-score),[15],-0.111
same,glycan array binding signal (z-score),[16],-0.422
same,glycan array binding signal (z-score),[17],-0.265
same,glycan array binding signal (z-score),[18],0.114
same,glycan array binding signal (z-score),[19],-0.235
same,glycan array binding signal (z-score),[20],-0.223
same,glycan array binding signal (z-score),[21],0.325
same,glycan array binding signal (z-score),[22],0.216
same,glycan array binding signal (z-score),[23],0.387
same,glycan array binding signal (z-score),[24],-0.193
same,glycan array binding signal (z-score),[25],-0.413
same,glycan array binding signal (z-score),[26],-0.676
same,glycan array binding signal (z-score),[27],-0.42
same,glycan array binding signal (z-score),[28],-0.049
same,glycan array binding signal (z-score),[29],-0.096
same,glycan array binding signal (z-score),[30],-0.1
same,glycan array binding signal (z-score),[31],0.175
same,glycan array binding signal (z-score),[32],0.212
same,glycan array binding signal (z-score),[33],0.263
same,glycan array binding signal (z-score),[34],-0.013
same,glycan array binding signal (z-score),[35],-0.201
same,glycan array binding signal (z-score),[36],-0.21

# Source: the supplement of paper PMC8728848
